# In the supplement of paper PMC12217912:
# Some of the results follow. The full chains were built here from the parent and the listed change. Values near 0.05 are background.
# B1: TEV protease; numbered along this chain (parent)
# chain: MGESLFKGPRDYNPISSSICHLTNESDGHTTSLYGIGFGPFIITNKHLFRRNNGTLVVQSLHGVFKVKDTTTLQQHLVDGRDMIIIRMPKDFPPFPQKLKFREPQREERICLVTTNFQTKSMSSMVSDTSCTFPSGDGIFWKHWIQTKDGQCGSPLVSTRDGFIVGIHSASNFTNTNNYFTSVPKNFMELLTNQEAQQWVSGWRLNADSVLWGGHKVFMVKPEEPFQPVKEATQL
# Variants of: B1
# Experiment: raw area under fraction-flipped curve 0-4 h after induction (AUC4h, not background-subtracted), DNA-recorder readout of cleavage of the substrate (dimensionless); higher = more cleavage of the substrate by the protease variant
# Conditions: temperature: 34 °C; time window: 0-4 h after rhamnose induction
# Description: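 In vivo DNA recorder in E. coli TOP10(DE3) ΔrhaA at 34 °C. Each TEVp single-site mutant (parent TEVp 0) is paired with a single-site variant of the 7-mer TEVs (canonical ENLYFQ|S). The substrate sits between flexible linkers in a Bxb1-sfGFP-TEVs-SsrA fusion, so cleavage stabilises Bxb1 and speeds flipping of a recombination array, read by NGS. The value is the raw area under the fraction-flipped curve over 0-4 h after rhamnose induction (AUC4h), with ≥20 reads per time point. It is not background-subtracted; inactive controls average about 0.047.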
# 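Further: Bxb1 expression induced with 0.2% (w/v) L-rhamnose at OD600 near 0.5, cultures sampled hourly, flipped fraction per protease–substrate barcode pair counted by paired-end Illumina sequencing.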
Variant,area with substrate ENLYCQS,area with substrate ENLYDQS,area with substrate ENLYEQS,area with substrate ENLYGQS,area with substrate ENLYHQS,area with substrate ENLYIQS,area with substrate ENLYKQS,area with substrate ENLYLQS,area with substrate ENLYMQS,area with substrate ENLYNQS,area with substrate ENLYPQS,area with substrate ENLYQQS,area with substrate ENLYRQS,area with substrate ENLYSQS,area with substrate ENLYTQS,area with substrate ENLYVQS,area with substrate ENLYWQS,area with substrate ENLYYQS
MGESLFKGPRDYNPISSCICHLTNESDGHTTSLYGIGFGPFIITNKHLFRRNNGTLVVQSLHGVFKVKDTTTLQQHLVDGRDMIIIRMPKDFPPFPQKLKFREPQREERICLVTTNFQTKSMSSMVSDTSCTFPSGDGIFWKHWIQTKDGQCGSPLVSTRDGFIVGIHSASNFTNTNNYFTSVPKNFMELLTNQEAQQWVSGWRLNADSVLWGGHKVFMVKPEEPFQPVKEATQL [S18C],0.085,0.0637,0.0545,0.0625,0.0605,0.126,0.0557,0.107,0.088,0.0618,0.0781,0.0574,0.0626,0.0776,0.0529,0.122,0.0694,0.0777
MGESLFKGPRDYNPISSSICHLTNESDGHTTSLYGIGFGPFIITNKHLFRRNNGTLVVQSLHGVFKVKDTTTLQQHLVDGRDMIIIRMPKDFPPFPQKLKFREPQREERICLVTTNFQTHSMSSMVSDTSCTFPSGDGIFWKHWIQTKDGQCGSPLVSTRDGFIVGIHSASNFTNTNNYFTSVPKNFMELLTNQEAQQWVSGWRLNADSVLWGGHKVFMVKPEEPFQPVKEATQL [K120H],0.0946,0.081,0.0609,0.073,0.074,0.126,0.058,,,0.0721,,,0.0547,0.131,,0.132,0.0792,
MGESLFKGPRDYNPISSSICHLTNESDGHTTSLYGIGFGPFIITNKHLFRRNNGTLVVQSLHGVFKVKDTTTLQQHLVDGRDMIIIRCPKDFPPFPQKLKFREPQREERICLVTTNFQTKSMSSMVSDTSCTFPSGDGIFWKHWIQTKDGQCGSPLVSTRDGFIVGIHSASNFTNTNNYFTSVPKNFMELLTNQEAQQWVSGWRLNADSVLWGGHKVFMVKPEEPFQPVKEATQL [M88C],0.0696,0.0787,0.0638,,0.0526,,,,,,0.08,0.0405,,0.0606,,,0.0513,
MGESLFKGPRDYNPISSSICHLTNESDGHTTSLYGIGFGPFIITNKHLFRRNNGTLVVQSLHGVFKVKDTTTLQQHLVDGRDMIIIRMPKDFPPFPQKLKFREPQREERICLVTTNFQTKSMSSMVSDTSCTFPSGDGIFWKHWIQTKDGQCGSPLVSTRDGFIVGIHSASNFTNTNNYFTSVPKNFMELLTNQEAQQWVSGWRLNADSVLWGGHKVFMVRPEEPFQPVKEATQL [K221R],0.0607,0.0614,0.0629,0.0681,0.0673,0.155,0.0613,,0.0925,0.0575,0.0771,0.075,0.0687,0.0863,0.0887,,0.0901,0.044
MGESLFKGPRDYNPISSSICHLTNESDGHTTMLYGIGFGPFIITNKHLFRRNNGTLVVQSLHGVFKVKDTTTLQQHLVDGRDMIIIRMPKDFPPFPQKLKFREPQREERICLVTTNFQTKSMSSMVSDTSCTFPSGDGIFWKHWIQTKDGQCGSPLVSTRDGFIVGIHSASNFTNTNNYFTSVPKNFMELLTNQEAQQWVSGWRLNADSVLWGGHKVFMVKPEEPFQPVKEATQL [S32M],0.112,0.0734,0.0689,0.0621,0.0698,,0.0277,,0.0912,,0.0702,0.0818,0.0516,0.0774,,,0.0765,0.0638
MGESLFKGPRDYNPISSSICHLTNESDGHTTSLYGIGFGHFIITNKHLFRRNNGTLVVQSLHGVFKVKDTTTLQQHLVDGRDMIIIRMPKDFPPFPQKLKFREPQREERICLVTTNFQTKSMSSMVSDTSCTFPSGDGIFWKHWIQTKDGQCGSPLVSTRDGFIVGIHSASNFTNTNNYFTSVPKNFMELLTNQEAQQWVSGWRLNADSVLWGGHKVFMVKPEEPFQPVKEATQL [P40H],0.0908,0.0868,0.0659,0.0632,0.068,,0.0607,,0.077,0.0779,0.0796,0.0666,0.0546,0.0786,,0.115,0.0778,
MGESLFKGPRDYNPISSSICHLTNESDGHTTSLYGIGFGRFIITNKHLFRRNNGTLVVQSLHGVFKVKDTTTLQQHLVDGRDMIIIRMPKDFPPFPQKLKFREPQREERICLVTTNFQTKSMSSMVSDTSCTFPSGDGIFWKHWIQTKDGQCGSPLVSTRDGFIVGIHSASNFTNTNNYFTSVPKNFMELLTNQEAQQWVSGWRLNADSVLWGGHKVFMVKPEEPFQPVKEATQL [P40R],0.0865,0.0457,0.0734,0.0654,0.0775,0.0968,,,0.0745,0.0737,0.059,,0.0382,,0.0676,0.114,0.0948,0.0689
MGESLFKGPRDYNPISSSICHLTNESDGHTTSLYGIGFGPFIITNKHLFRRNNGTLVVQSLHGVFKVKDTTTLQQHLVDGRDMIIIRMPKDFPPFPQKLKFREPQREERICLVTTNFQTKSMSSMVSDTSCTFPSGDGIFWKHWIQTKDGQCGSPLVSTRDGFIVGIHSASNFTNTNNYFTSVPKNFMELLTNQEAQQWVSGWRLNADSVLWGGHGVFMVKPEEPFQPVKEATQL [K216G],0.0662,0.0855,,0.056,0.0503,0.0612,0.0299,0.0592,0.0563,0.0465,0.0354,,0.0483,0.0549,,,0.108,0.0344
MGESLFKGPRDYNPISSSICHLTNESDGHTTSLYGIGFGPFIITNKHLFRRNNGTLVVQSLHGVFKVKDTTTLQQHLVDGRDMIIIRMPKDFPPFPQKLKFREPQREERICLVTTNFQTKSMSSMVSETSCTFPSGDGIFWKHWIQTKDGQCGSPLVSTRDGFIVGIHSASNFTNTNNYFTSVPKNFMELLTNQEAQQWVSGWRLNADSVLWGGHKVFMVKPEEPFQPVKEATQL [D128E],0.196,0.0722,0.0737,0.0738,0.0618,,,,,0.0766,0.1,,0.0566,,0.0664,0.132,0.0717,
MGESLFKGPRDYNPISSSICHLTNESDGHTTSLYGIGFGPFIITNKHLFRRNNGTLVVQSLHGVFKVKDTTTLQQHLVDGRDMIIIRMPKDFPPFMQKLKFREPQREERICLVTTNFQTKSMSSMVSDTSCTFPSGDGIFWKHWIQTKDGQCGSPLVSTRDGFIVGIHSASNFTNTNNYFTSVPKNFMELLTNQEAQQWVSGWRLNADSVLWGGHKVFMVKPEEPFQPVKEATQL [P96M],0.097,0.0809,0.0644,0.0691,0.0834,0.106,0.0725,0.0707,0.0789,0.0648,0.047,,0.062,0.0794,,,0.085,
MGESLFKGPRDYNPISSSICHLTNESDGHTTSLYGIGFGPFIITNKHLFRRNNGTLVVQSLHGVFKVKDTTTLQQHLVDGRDMIIIRMPKDFPPFPQKLKFREPQREERICLVTTNFQTKSMSSMVSDTSCTFPSGDGIFWKHWIQTKDGQCGSPLVSTVDGFIVGIHSASNFTNTNNYFTSVPKNFMELLTNQEAQQWVSGWRLNADSVLWGGHKVFMVKPEEPFQPVKEATQL [R160V],0.0869,0.0559,0.0669,0.0646,0.075,0.153,0.0177,,0.0788,0.0532,0.0811,0.0538,0.0624,,0.0913,0.123,0.0864,0.0521
MGESLFKGPRDYNPISSSICHLTNESDGHTTSLYGIGFGPFIITNKHLFRRNNGTLVVQSLHGVFKVKDTTTLQQHLVDGRDMIIIRMPKDFPPFPQKLKFREPQREERICLVTTNFQTKSMSSMVSDTSCTFPSGDGIFWKHWIQTKDGQGGSPLVSTRDGFIVGIHSASNFTNTNNYFTSVPKNFMELLTNQEAQQWVSGWRLNADSVLWGGHKVFMVKPEEPFQPVKEATQL [C152G],0.0578,0.0629,0.0552,0.053,0.0582,,0.0619,,0.0578,0.0569,0.07,0.0676,0.0566,0.0554,0.0668,0.0504,0.0469,0.056
MGESLFKPPRDYNPISSSICHLTNESDGHTTSLYGIGFGPFIITNKHLFRRNNGTLVVQSLHGVFKVKDTTTLQQHLVDGRDMIIIRMPKDFPPFPQKLKFREPQREERICLVTTNFQTKSMSSMVSDTSCTFPSGDGIFWKHWIQTKDGQCGSPLVSTRDGFIVGIHSASNFTNTNNYFTSVPKNFMELLTNQEAQQWVSGWRLNADSVLWGGHKVFMVKPEEPFQPVKEATQL [G8P],0.0898,0.059,0.0706,0.0683,,,0.0517,0.112,,0.0993,0.0609,0.0934,0.0343,0.0674,,,,
MGESLFKGPRDYNPISSSICHLTNESDGHTTSLYGIGFGPFIITNKHLFRRNNGTLVVQSLHGVFKVKDTTTLQQHLVDGRDMIIIRMPKDFPPFPQKLKFREPQREERICLVTTNFQTKSMSSMVSDTSCTFPSLDGIFWKHWIQTKDGQCGSPLVSTRDGFIVGIHSASNFTNTNNYFTSVPKNFMELLTNQEAQQWVSGWRLNADSVLWGGHKVFMVKPEEPFQPVKEATQL [G136L],0.0801,0.0544,0.0623,0.0694,0.0697,0.105,0.0635,0.125,0.087,0.0729,0.061,,0.0635,0.117,0.0687,0.0685,0.0698,
MGESLFKGPRDYNPISSSICHLTNESDGHTTSLYGIGFGPFIITNKHLFRRNNGTLVVQSLHGVFKVKDTTTLQQHLVDGRDMIIIRMPKDFPPFPQKLKFREPQREERICLVTTNFQTKSMSSMVSDTSCTFPSGDGIFWKHWIQTKDGQCGSPLVSTRDGFIVGIFSASNFTNTNNYFTSVPKNFMELLTNQEAQQWVSGWRLNADSVLWGGHKVFMVKPEEPFQPVKEATQL [H168F],0.0626,0.0558,0.0584,,0.0651,,,,0.054,0.0643,,0.0655,0.106,,,0.0671,,0.0652
MGESLFKGPRDYNPISSSICHLTNESDGHTTSLYGIGFGPFIITNKHLFRRNNGTLVVQSLHGVFKVKDTTTLQQHLVDGRDMIIIRMPKDFPPFPQKLKFREPQREERICLVTTNFQTKSMSSMVSDTSCTFPSGDGIFWKHWIQTKDGQCGSPLVSTRDGFIVGIHSASNFTNTNNYFTSVPKNFMELLTNQEAQQWVSGWRLNADSVLWGGHKVFMVKPEEPFQPVKESTQL [A232S],0.117,,0.0517,0.0371,0.0612,0.145,0.0559,0.0679,0.0895,,0.0687,,0.071,0.0685,,0.175,0.097,0.0712
MGESLFKGPRDYNPISSSICHLTNESDGHTTSLYGIGFGPFIITNKHLFRRNNGTLVVQSLHGQFKVKDTTTLQQHLVDGRDMIIIRMPKDFPPFPQKLKFREPQREERICLVTTNFQTKSMSSMVSDTSCTFPSGDGIFWKHWIQTKDGQCGSPLVSTRDGFIVGIHSASNFTNTNNYFTSVPKNFMELLTNQEAQQWVSGWRLNADSVLWGGHKVFMVKPEEPFQPVKEATQL [V64Q],0.0561,0.0705,0.0717,0.0567,0.0741,0.109,,,0.0915,0.0747,0.0508,0.0644,0.0498,0.0707,0.0817,,0.0695,
MGESLFKGPRDYNPISSSICHLTNESDGHTTSLYGIGFGPFIITNKHLFRRNNGTLVVQSLHGVFKVKDTTTLQQHLVDGRDMIIIRMPKDFPPFPQKLKFREPQREERICCVTTNFQTKSMSSMVSDTSCTFPSGDGIFWKHWIQTKDGQCGSPLVSTRDGFIVGIHSASNFTNTNNYFTSVPKNFMELLTNQEAQQWVSGWRLNADSVLWGGHKVFMVKPEEPFQPVKEATQL [L112C],0.116,0.0711,0.0641,0.0676,,,,,0.0664,0.0509,0.0604,,0.0644,,,0.0801,,0.0584
